Consider 26 molecules from PMC4336329 (PLoS ONE, 2015).

Molecules are shown by their SMILES. About 14,000 (4.5%) of roughly 310,000 compounds showed an effect of 50% or more. Effects have a minus sign here. Some of the results follow.
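Note: peak tail current of the secondary pulse compared with the same well before compound.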

In the test the target is human ether-à-go-go-related gene (hERG) potassium channel (human, UniProt Q12809). As to the kind of experiment: primary screen, population patch clamp on CHO cells stably expressing hERG.
Sequence of human ether-à-go-go-related gene (hERG) potassium channel (Q12809 whole entry, looked up): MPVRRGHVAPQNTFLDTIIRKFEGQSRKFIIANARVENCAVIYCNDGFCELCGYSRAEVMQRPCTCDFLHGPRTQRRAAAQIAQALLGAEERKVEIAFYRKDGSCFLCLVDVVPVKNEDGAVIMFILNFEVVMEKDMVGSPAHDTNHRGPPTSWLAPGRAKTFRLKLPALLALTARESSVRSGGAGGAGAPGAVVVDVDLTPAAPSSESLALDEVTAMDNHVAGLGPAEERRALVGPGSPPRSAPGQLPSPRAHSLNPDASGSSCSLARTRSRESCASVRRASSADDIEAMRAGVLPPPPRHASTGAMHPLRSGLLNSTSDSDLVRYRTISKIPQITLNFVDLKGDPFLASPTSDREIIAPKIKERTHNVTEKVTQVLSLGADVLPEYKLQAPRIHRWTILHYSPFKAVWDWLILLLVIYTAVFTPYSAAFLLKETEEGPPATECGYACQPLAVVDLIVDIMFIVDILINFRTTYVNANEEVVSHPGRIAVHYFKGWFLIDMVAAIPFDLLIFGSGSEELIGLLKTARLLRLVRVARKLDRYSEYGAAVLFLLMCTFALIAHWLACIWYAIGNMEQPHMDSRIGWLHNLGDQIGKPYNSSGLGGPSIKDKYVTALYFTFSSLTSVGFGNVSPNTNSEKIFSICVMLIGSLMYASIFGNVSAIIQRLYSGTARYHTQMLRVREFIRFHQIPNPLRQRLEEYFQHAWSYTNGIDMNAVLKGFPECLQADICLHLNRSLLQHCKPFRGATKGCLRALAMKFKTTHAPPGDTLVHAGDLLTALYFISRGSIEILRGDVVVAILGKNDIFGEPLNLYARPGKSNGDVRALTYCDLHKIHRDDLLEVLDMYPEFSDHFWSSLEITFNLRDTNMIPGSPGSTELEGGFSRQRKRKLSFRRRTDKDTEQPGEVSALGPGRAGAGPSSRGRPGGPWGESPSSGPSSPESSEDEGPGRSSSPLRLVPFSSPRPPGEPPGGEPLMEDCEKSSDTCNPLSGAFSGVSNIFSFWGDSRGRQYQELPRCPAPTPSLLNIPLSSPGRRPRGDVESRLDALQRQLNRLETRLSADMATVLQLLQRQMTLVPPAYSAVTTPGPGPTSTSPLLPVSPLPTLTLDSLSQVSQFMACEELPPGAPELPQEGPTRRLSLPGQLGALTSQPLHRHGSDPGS
In the case of `CCOc1ccc(S(=O)(=O)N(CC(=O)NCc2ccncc2)c2ccc(C)cc2)cc1`, the “hERG current change (%, negative = inhibition) at 10uM” value is reported as -56.5%.

Consider `Cc1cccc(C)c1NC(=O)N1CCC(c2nc3ccccc3o2)CC1`, for which the “hERG current change (%, negative = inhibition) at 10uM” value is on record as -5.91%.

As to `COCCC(=O)N1CCC(Oc2ccc(C(=O)N3CCCC(CCCO)C3)cc2)CC1` (centres unmarked), the “hERG current change (%, negative = inhibition) at 10uM” value came to 23.6%.

In the case of `COCCN(C(=O)c1csnn1)C(C(=O)NC1CCCCC1)c1ccccc1F` (centres unmarked), the “hERG current change (%, negative = inhibition) at 10uM” value came out at 3.83%.

Turning to `Cc1ccc(-c2nc3ncccc3o2)cc1NC(=O)CC(C)C`, the “hERG current change (%, negative = inhibition) at 10uM” value was -3.67%.

As for `CC(C)N(Cc1cnn(C)c1)Cc1nc(-c2ccc(Cl)cc2)no1`, the “hERG current change (%, negative = inhibition) at 10uM” value turned out to be 3.63%.

For the molecule `CCN(C1CCCCC1)S(=O)(=O)c1ccc(OC)c(C)c1`, the “hERG current change (%, negative = inhibition) at 10uM” value is on record as -4.2%.

Turning to `CCC1CCCCN1C(=O)N[C@@H](CCSC)C(=O)OC` (some centres unmarked), the “hERG current change (%, negative = inhibition) at 10uM” value is listed as -11%.

Consider `CC(/C=N\Nc1nnc2c(n1)[nH]c1c(C)cccc12)=C\c1ccco1`, for which the “hERG current change (%, negative = inhibition) at 10uM” value was determined as 13.1%.

In the case of `CN1CN(C)c2cccc3cccc1c23`, the “hERG current change (%, negative = inhibition) at 10uM” value amounted to 4.19%.

On to `O=C(Cn1c(=O)oc2ccccc21)Nc1nnc(N2CCCCCC2)s1`, for which the “hERG current change (%, negative = inhibition) at 10uM” value is -5.64%.

Take `c1ccc(CSc2nncn2-c2ccccn2)cc1`: the “hERG current change (%, negative = inhibition) at 10uM” value is reported as -0.388%.

Regarding `COc1ccc(CN(C)CC(=O)NC(=O)NC2CCCCC2)cc1`, the “hERG current change (%, negative = inhibition) at 10uM” value is -20.4%.

In the case of `O=C(COc1cc2oc(=O)c3c(c2cc1Cl)CCCC3)N1C[C@H]2C[C@@H](C1)c1cccc(=O)n1C2`, the “hERG current change (%, negative = inhibition) at 10uM” value was -36.7%.

Take `O=C(O)CNC(=S)N(Cc1ccccc1)Cc1cccs1`: the “hERG current change (%, negative = inhibition) at 10uM” value turned out to be 34%.

Consider `CN(CC(=O)Nc1ccccc1N1CCOCC1)CC(=O)Nc1ccc(F)c(F)c1F`, for which the “hERG current change (%, negative = inhibition) at 10uM” value stood at 8.1%.

Turning to `Cc1nc2ccccn2c1C(=O)NCC(C)C`, the “hERG current change (%, negative = inhibition) at 10uM” value was found to be 4.62%.

As to `NNC(=S)NC1CCCCC1`, the “hERG current change (%, negative = inhibition) at 10uM” value worked out at 31.7%.

Turning to `CCc1ccc2nc(NC(=O)CCCc3cccs3)sc2c1`, the “hERG current change (%, negative = inhibition) at 10uM” value amounted to 5.25%.

With `NNc1nnc(-c2ccccc2)c(-c2ccccc2)n1`, the “hERG current change (%, negative = inhibition) at 10uM” value is reported as -2.13%.

On to `COc1ccc(CCn2c([S-])nc3ccccc3c2=O)cc1.[Na+]`, for which the “hERG current change (%, negative = inhibition) at 10uM” value came to 20.1%.

For `O=C(CCN1C(=O)/C(=C\c2cccs2)SC1=S)Nc1nccs1`, the “hERG current change (%, negative = inhibition) at 10uM” value was found to be 10%.

Regarding `COc1ccc(CNc2nc(SCc3cc(=O)n4cc(Cl)ccc4n3)nc3ccccc23)cc1`, the “hERG current change (%, negative = inhibition) at 10uM” value is given as -44%.

As to `Brc1ccc(-c2nnc(-c3ccccc3)c(N3CCSCC3)n2)cc1`, the “hERG current change (%, negative = inhibition) at 10uM” value is listed as 4.62%.

In the case of `CC(C)(C)c1ccc(OCCC(=O)Nc2cccc(S(=O)(=O)N3CCCCC3)c2)cc1`, the “hERG current change (%, negative = inhibition) at 10uM” value was found to be 16.4%.

For the molecule `CC(C)OC(=O)NS(=O)(=O)c1cccc([N+](=O)[O-])c1`, the “hERG current change (%, negative = inhibition) at 10uM” value was 13.7%.
